The supplement of paper PMC10126150
Sequences with one replicate were seen in a single cluster, so their values are uncertain.

Test system: ATP
Test: switch fluorescence ratio, 500 uM ATP over buffer (Cy3 cluster intensity, sum of 5 cycles each) (fold (ratio)); higher = stronger signal-on switching upon ATP binding; sequences stand for … in TCGTCGGCAGCGTCAGATGTGTATAAGAGACAGTTTTTTTTTTTTTTTTTTTTTTTTT…TC
Conditions: aptamer strand: ATP DNA aptamer (quencher-CACCTGGGGGAGTATTGCGGAGGAAGG + anchor), 100 nM annealed; ATP concentration: 500 uM; one replicate
Procedure, shortened: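 Cy3-labelled switching-strand clusters on a modified Illumina MiSeq flow-cell were annealed to 100 nM quencher-labelled ATP aptamer and imaged first in selection buffer, then after 15 min with 500 uM ATP at 22 °C. NaOH stripping and re-annealing separated each of five buffer/ATP cycles, and clusters outside 100-1000 RFU were excluded. The fluorescence ratio sums target-cycle Cy3 intensity over buffer-cycle Cy3 intensity per cluster and averages it per switch-domain sequence.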
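Note: ATP exposure 15 min at 22 °C before imaging.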

Sequence | switch fluorescence ratio
CTAGAATCTT | 0.957
CTATCATGTT | 0.928
ACACTAACGC | 1.2
GATGGGTTAA | 0.97
GAGGCATCTA | 0.995
ATTACATGTT | 0.981
AGATAACTGT | 1.06
TTAGAGCATA | 1.94
GTTGACGGGA | 1.01
TTTACTATCA | 0.98
GGGTATTGTC | 0.987
TGGACGATTG | 1.04
TAACATGCTG | 1.04
GTAGAAGGAG | 1.02
CAAGCGGTGA | 0.996
GGTAGATGGG | 0.947
TTTCTGTGAA | 1
ATATGGGCCA | 1.27
AGGGCCACGA | 0.997
ACCTTGAGAC | 1.07
TGAAGATTAG | 1.04
GGTCAGCCTG | 1.02
GGCTAACTAC | 1.19
CTGCATCCA | 1.07
TGCCAGTCGA | 0.969
CGATGTTTGT | 1

Sequence | switch fluorescence ratio
TAACGGGTTC | 1.01
GGGGGAAC | 1.02
GCCCTGGAGG | 1.24
TTAATACGTG | 1.06
TCGGTCCATT | 0.984
GATTGATTAT | 0.991
CGGAGGCGCA | 1
GGAAACACGG | 1.03
ACCTACGAAG | 1.15
TCAAGCGTTA | 1.01
ACTGGCGCGT | 1.02
CGAAAGCGTG | 1.01
TATCTGGAAA | 0.995
CGGTGTTAA | 0.975
ATTTACAGTA | 1.07
GTGTAGTTG | 0.998
GAGTTAGGCT | 0.996
AAGGCACCAG | 1.04
GGATCGTCCG | 0.93
CCCTTCTAAC | 1.02
CCAGTCAAGG | 0.997
TCCGGGTTTC | 2.12
TTCGTTATTT | 0.996
CTTGCACTCC | 1.67
GTCAAGGGGG | 0.99
TACGGGACAA | 1.16

Sequence | switch fluorescence ratio
TTCCCTAACG | 0.997
CATAAGACCC | 1.08
AGGAAAGGGA | 0.99
ACCACTGTCG | 1.03
GCGACCGGTG | 1.58
GCAGTAAGCG | 0.99
AAAGTTTTCT | 0.957
TTACACTGAT | 1.04
GACTTATGAC | 1.02
ATGATCCATT | 1
AGTATGGCGT | 0.977
TACCCCACGA | 1.42
GTTCGAACCT | 1.07
GATTGCTGTT | 1.03
TATATATATA | 0.985
ACGCGGATGG | 1.06
TTAAAACTT | 1.01
ACGCTGTGTT | 0.995
AGTGAATACA | 0.992
CGAGTAGAT | 1.04
CCATGACGCG | 1.22
ACGTGTATCC | 1.06
TCGGGTCAAT | 1.18
CCCCTATCCC | 1.05
GGTTGCGCG | 1
ATAGAACGAG | 0.998

Sequence | switch fluorescence ratio
TGCCTGGGAG | 0.971
AGGAATCGAC | 1.01
GGTCATATGA | 1.04
TGAGCGGTC | 1.16
AGCAAGTTAA | 1.04
TTGCGCGACA | 1
GGTATTCGCC | 0.973
CGTCTCTAGC | 0.998
ATCCTACCGG | 1.04
TGGTAATGTC | 1.17
AGGGATAGAA | 1.03
TTCCTCTGCG | 2.31
GACCCGGATA | 1.08
GAGGGACAGT | 1.06
ACACTCTCAT | 0.984
AGATCGCGTC | 1.01
CTCAATGGCA | 0.98
CGGTTATGCA | 1.03
AATTAATAGA | 0.973
CTGAGGTTGA | 1.02
ATGCAAAATT | 1.01
GCGTACGGCT | 1.02
ATCCTGCAGG | 0.961
GTTACAAAAA | 1.09
TTTGACGCGG | 1
AAAGTCTGTG | 1.04

Sequence | switch fluorescence ratio
AGCTCTGCAG | 1.19
ACGGGGTAAG | 1.03
GGATGGTCGA | 1
GAGTATAAAC | 1.01
CAGCAAAAGG | 1.04
CTTGGAACCG | 1.02
GTACAAAGTT | 1.03
AGTGATGGAT | 0.983
GGATTGTAAC | 0.972
CTGGACGTGC | 1.05
CTGGACTCCC | 1.56
GGAAGTGTC | 1.01
TTCAAAGTGT | 1.09
ATTACTGGGT | 0.968
GGGGCTTCCT | 1.38
CGATTCGTGA | 0.984
AGATTCACCT | 1.16
CATAGTAATC | 1.91
TATACTATGA | 0.962
AAATCACCGA | 0.994
ACGGACGTCC | 0.977
GAGTAGCCTA | 0.968
TCGAGCATAA | 3.25
GAGTCAACAA | 1.04
GTGGCAGCCT | 0.996
ATATACTCTA | 1.06

Sequence | switch fluorescence ratio
ATGGTTGAGA | 0.989
TCATCAGACT | 0.995
GCATTTGCA | 1.02
AAGGACTCGG | 0.982
TTTCCCACGA | 1.53
TCTTATCGGG | 1.05
AATATAAGGT | 1.01
ATTGGTCTTT | 0.978
TTGGCCGGAA | 1.02
CATGGTGGTA | 0.99
ACTTAGATC | 1.03
CCTTTAAGAA | 0.984
TACCAGTTGT | 1.05
CCTACGTTG | 2.25
GCGGCTTTTT | 0.974
CCATTCCGTC | 1.05
CGACCAAAC | 3.99
CGGGTACGCA | 1.05
CGCTTATG | 1.1
ACGCTCTTAT | 1.07
GTAAATGATA | 1.03
TACTTTGTCC | 1.03
GTGTCAAGTC | 1.03
GGAATAAGAG | 0.961
TTAGGTTGTG | 0.989
TTCTGGCCAG | 1.01

Sequence | switch fluorescence ratio
TGGCAGGAG | 0.971
CGCCGCGTTC | 3.93
GGCTCATGTA | 0.992
GCTCTACTCT | 1.09
TTTGCGTAAT | 2.82
CGAAGCGCCT | 1.04
TAACGTAACT | 1.11
AGCCATTTAG | 0.994
AAGTTTGCGA | 0.994
TAATATTCA | 1.04
CTAAAACGGG | 1.06
AATGTATGGT | 0.963
ACACAAAT | 1.04
TTTATGTGA | 1.07
CGGGCCTTAG | 0.975
ACTGGGCATC | 1.06
TGTCCAAAAT | 2.05
GAGCAATAGG | 2.18
AATCGGATCA | 1.03
TTTCGCACGG | 1.06
TTATGTGCTC | 1.04
AGTAATGCT | 1.19
AAAAGACAC | 0.958
GGCAGCACTT | 1.03
TATGGAGTC | 0.988
GGGCACGTGA | 0.987

Sequence | switch fluorescence ratio
GAGCTCTATG | 1.15
TCTAGATTGA | 1
CATTAGCAAA | 1.35
ATTACTGCCC | 1.04
TTTAAGTGCA | 1.04
TACGGCAGAC | 1.85
TAAAGGCTGA | 1.05
GCAAGTTGCC | 0.968
GCCTCCCAGG | 2.76
TGCCCCTAGC | 1.03
GCTCATCGAT | 1.02
AATTAAGGC | 1.03
GGTCTGACTT | 1.01
TAGGGGA | 1.03
AAATTAAGGT | 0.948
AAGCACGCC | 1.2
TTTACCCTAA | 1
GGGCTGTATG | 1.01
ACTGCTTCAC | 1.12
